# In article PMC4336329 (PLoS ONE, 2015):
# The whole screen tested about 310,000 compounds, of which about 14,000 (4.5%) showed an effect of 50% or more. The effect is printed as a negative number. The list shows a part of the results.
# Target: human ether-à-go-go-related gene (hERG) potassium channel (human, UniProt Q12809)
# Test: primary screen, population patch clamp on CHO cells stably expressing hERG
# 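Also: peak tail current of the secondary pulse compared with the same well before compound.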
# human ether-à-go-go-related gene (hERG) potassium channel, sequence (Q12809 whole entry, looked up): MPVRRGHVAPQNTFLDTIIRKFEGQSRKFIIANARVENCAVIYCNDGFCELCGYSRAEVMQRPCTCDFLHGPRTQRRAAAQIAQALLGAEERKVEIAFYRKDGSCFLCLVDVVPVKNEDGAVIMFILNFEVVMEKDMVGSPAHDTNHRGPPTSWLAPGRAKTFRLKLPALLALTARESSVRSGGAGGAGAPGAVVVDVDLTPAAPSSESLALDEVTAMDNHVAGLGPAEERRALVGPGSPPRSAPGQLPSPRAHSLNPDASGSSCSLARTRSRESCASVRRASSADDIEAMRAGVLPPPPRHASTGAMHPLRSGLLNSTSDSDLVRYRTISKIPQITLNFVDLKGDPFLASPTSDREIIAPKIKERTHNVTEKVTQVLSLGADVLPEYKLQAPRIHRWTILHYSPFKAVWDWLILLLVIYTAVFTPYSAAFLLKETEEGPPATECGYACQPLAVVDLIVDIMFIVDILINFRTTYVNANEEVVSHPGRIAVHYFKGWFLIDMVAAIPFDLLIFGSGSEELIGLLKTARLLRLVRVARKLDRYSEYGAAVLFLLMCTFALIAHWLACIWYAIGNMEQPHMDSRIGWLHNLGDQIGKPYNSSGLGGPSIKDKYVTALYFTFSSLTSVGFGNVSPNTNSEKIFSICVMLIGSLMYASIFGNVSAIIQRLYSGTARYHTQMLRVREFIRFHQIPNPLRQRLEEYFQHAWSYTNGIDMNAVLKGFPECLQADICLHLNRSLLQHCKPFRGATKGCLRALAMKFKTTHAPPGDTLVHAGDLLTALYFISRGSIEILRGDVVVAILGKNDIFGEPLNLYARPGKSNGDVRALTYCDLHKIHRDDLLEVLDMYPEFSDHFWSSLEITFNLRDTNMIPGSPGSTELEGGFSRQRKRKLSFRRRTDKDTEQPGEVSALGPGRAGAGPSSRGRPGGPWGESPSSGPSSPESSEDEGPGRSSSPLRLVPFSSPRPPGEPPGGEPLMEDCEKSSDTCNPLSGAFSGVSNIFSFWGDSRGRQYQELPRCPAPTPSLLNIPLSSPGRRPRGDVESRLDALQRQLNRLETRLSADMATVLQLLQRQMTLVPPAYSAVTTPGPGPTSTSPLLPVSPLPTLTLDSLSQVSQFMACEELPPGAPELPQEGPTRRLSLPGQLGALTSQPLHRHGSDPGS
row,Structure (SMILES),"hERG current change (%, negative = inhibition) at 10uM [%]"
1,O=C(/C=C/c1ccnc2ccccc12)c1cccs1,0.0515
2,COC(=O)C1CN(S(=O)(=O)c2ccc(NC(C)=O)cc2)CCS1 (stereo not drawn),13.4
3,O=C(O)C1CCN(c2ncccn2)CC1,9.57
4,CCC(=O)N(C1=C(NC(C)C)C(=O)c2ccccc2C1=O)C(C)C,4.82
5,O=C(O)c1ccccc1C(=O)NC1Cc2ccccc2C1,2.54
6,CC(C)(C)OC(=O)N1CCCN(C(=O)c2ccc(Cl)cc2)CC1,13
7,Clc1ccc(CSc2nnc(NC3=NCCCCC3)s2)cc1,-6.08
8,Cc1no[n+]([O-])c1COc1ccccc1/C=C1\NC(=S)NC1=O,3.63
9,O=c1[nH][nH]c(-c2ccccc2)c1C=Nc1ccccc1Cl,-9.47
10,Nc1c2c(nc3ccn(Cc4ccccc4)c(=O)c13)CCC2,-66
11,CC(=O)c1cccc(NC(=O)N2CCCC2C(=O)Nc2cccc(C)c2C)c1 (stereo not drawn),-0.374
12,O=C1C=C(NCc2ccc3c(c2)OCO3)CC(c2ccccc2)C1 (stereo not drawn),-76.9
13,COc1ccc(CCNC(=O)CN(c2cc(C)cc(C)c2)S(=O)(=O)c2c(C)noc2C)cc1OC,-22.6
14,COc1cccc(N(CC(=O)NC2CCCCC2)C(=O)CCC(=O)Nc2nc(C)cs2)c1,-15.4
15,COc1ccc(C2=NN(C(=O)c3cccs3)C(c3ccccc3O)C2)cc1 (stereo not drawn),8.21
16,CC(C)(CNC(=O)c1ccc(S(=O)(=O)N2CCCC2)cc1)N1CCOCC1,12
17,CCOC(=O)c1c(NC(C)=O)sc2c1C1CCN2CC1.Cl,18.5
18,COC(=O)Cn1c(CN2CCc3ccccc3C2)nc2c1c(=O)n(C)c(=O)n2C,-28
19,COCCn1c(SCC(=O)c2[nH]c(C)c(C(C)=O)c2C)nc2ccccc2c1=O,-12
20,Nc1c(Br)cc2oc(-c3ccccc3)nc2c1Br,-5.69
21,Cc1c(NC(=O)c2cc(-c3cccs3)nc3ccccc23)c(=O)n(-c2ccccc2)n1C,4.12
22,O=C(O)C(=O)O.c1ccc(CNCCc2ccc3c(c2)OCO3)nc1,2.74
23,Cc1nn(C(=O)N2CCOCC2)c(C)c1C,22

row,Structure (SMILES),"hERG current change (%, negative = inhibition) at 10uM [%]"
1,CCOC(=O)c1cc2cc([N+](=O)[O-])ccc2oc1=O,-21.7
2,CCOC(=O)CN1C(=O)S/C(=C/c2cc(C)n(C)c2C)C1=O,-3.84
3,CC(C)CCNC(=O)Cc1ccc(Nc2nc(=S)[nH]c3ccccc23)cc1,9.64
4,COc1cc2c(cc1NC(=O)CSc1nc3ccc(C)cc3[nH]1)oc1ccccc12,7.65
5,O=c1nc(SCc2c(F)cccc2Cl)nc(-c2ccc(Cl)cc2)[nH]1,10.5
6,Cc1oc(CC(C)C)c(CN)c1C(=O)O.Cl,-7.41
7,Cc1ccccc1-c1nnc(NC(=O)c2ccc(N3C(=O)CCC3=O)cc2)s1,21
8,Cc1nnc(-n2cnc3ccccc32)c2ccccc12,-5.31
9,COc1ccc(-c2cc(N)n(S(=O)(=O)c3ccc(C)cc3)n2)c(OC)c1,6.37
10,CCOc1cc(/C=N/NC(=O)Cn2nc([N+](=O)[O-])cc2C)cc(Br)c1OCc1ccccc1F,8.58
11,Cc1cc(C)cc(OCCNC(=O)C2CCN(S(=O)(=O)c3ccccc3)CC2)c1,-11.3
12,CC1Cc2ccccc2N1C(=O)c1ccc(Br)o1 (stereo not drawn),-13.1
13,O=C(CN1CCOCC1)Nc1cc(Cl)ccc1Cl,-32.5
14,CCc1ccc(N2CN(Cc3cccnc3)CNC2=S)cc1,-8.66
15,O=C(COc1ccc2oc(-c3ccccc3)cc(=O)c2c1)Nc1ccccc1,-2.43
16,CC1(C)CC(=O)c2sc(N)nc2C1,-11.1
17,O=C(COC(=O)c1cccnc1Cl)NCCc1ccccc1,3.16
18,COc1cc(CN=C(C)c2c(O)n(C3CCCCC3)c(=O)[nH]c2=O)cc(OC)c1,15.4
19,CCOC(=O)CCCCC(=O)c1[nH]c(=O)[nH]c1CN1CCOCC1,20
20,CNc1nc(-c2ccccc2)cc(-c2ccccc2)n1,10.8
21,O=C1NN(c2cccc(Br)c2)C(=O)/C1=C/c1cccs1,12.5
22,CC(C)COc1ccc(-c2nnc(-c3ccncc3)o2)cc1,-12
23,Cc1cccc(N(CC(=O)N2CCOCC2)S(C)(=O)=O)c1C,-11

row,Structure (SMILES),"hERG current change (%, negative = inhibition) at 10uM [%]"
1,Oc1ccc(C[C@H]2CNCCN2CCc2cccc(F)c2)cc1,-30.4
2,O=C(O)CN1C(=O)NC2NC(=O)NC21 (stereo not drawn),12.9
3,COc1ccc(CCNC(=O)CCCCC(=O)NCCc2ccc(OC)c(OC)c2)cc1OC,4.7
4,C/C(=N\Nc1nc(N)cc(Cl)n1)c1cccc([N+](=O)[O-])c1,7.11
5,O=C(O)c1ccc(/C=N/N2CCN(Cc3ccccc3)CC2)cc1,-2.12
6,Cc1nn(C)cc1C(C)NCc1c(C(=O)N2CCCCCCC2)nc2ccc(Cl)cn12 (stereo not drawn),8.88
7,CCn1c(Cc2ccc(OC)cc2)nnc1SCC(=O)NC1CC1,6.39
8,NNS(=O)(=O)c1ccc(Sc2ccccn2)c([N+](=O)[O-])c1,11.3
9,COCCn1c(SC2CCCCC2=O)nnc1-c1ccncc1 (stereo not drawn),18.9
10,CCCOc1ccc(N2C(=O)CC(N3CCCC(C(=O)N4CCCC4)C3)C2=O)cc1 (stereo not drawn),4.63
11,COc1ccc(S(=O)(=O)N2CCOC2CNC(=O)C(=O)NCc2ccncc2)cc1OC (stereo not drawn),10.3
12,CCN(CC)C(=O)Cn1cnc2sc(C(=O)N3CCN(c4ccc(F)cc4)CC3)c(C)c2c1=O,-37
13,Cc1c(C)c2ccc(OCC(=O)NC3CCN(Cc4ccccc4)CC3)c(C)c2oc1=O,-42.7
14,CC(C)(C)c1ccc(C2CC2C(=O)N/N=C\c2cc3ccccc3nc2Cl)cc1 (stereo not drawn),0.599
15,CC(C)N=C(NC#N)SCc1ccc(F)cc1,-2.23
16,O=C(/C=C/c1ccc([N+](=O)[O-])s1)N1CCCC1,-52.9
17,COc1ccc(CCN2C(=O)CC(C(N)=O)SC2=Nc2ccccc2)cc1 (stereo not drawn),-26.2
18,COC(=O)c1c(NC(=O)CN2CCC3(O)CCCCC3C2c2ccc(OC)cc2OC)sc(C)c1C (stereo not drawn),18.3
19,CCOC(=O)N1CCN(C(=O)c2oc3ccc(S(=O)(=O)N4CCOCC4)cc3c2C)CC1,-3.71
20,CC1(C(=O)NCc2cccnc2)CCC(=O)N1CCc1ccccc1 (stereo not drawn),-10.9
21,OCc1ccccc1OCCCOc1cccc2cccnc12,-3.4
22,CNC(=O)c1[nH]cnc1C(=O)Nc1ccccc1,10.3
23,CCc1ccc2oc(-c3cc(N)cc(C)c3O)nc2c1,7.4

row,Structure (SMILES),"hERG current change (%, negative = inhibition) at 10uM [%]"
1,CCn1c2ccccc2c2nnc(SCC(=O)NC3CCS(=O)(=O)C3)nc21 (stereo not drawn),8.22
2,O=C(c1c(F)cccc1F)N(C1CCCCC1)C1CCCCC1,-8.71
3,CS(=O)(=O)N1CCCC(C(=O)NCCc2ccc(Cl)cc2)C1 (stereo not drawn),-24.1
4,COc1ccc(OCc2nnc3n2N=C(c2ccc(OC)cc2)CS3)cc1,-26.8
5,CN(C)/C=N/C(=S)Nc1ccc(F)cc1,14.4
6,CCN(CC)S(=O)(=O)c1cccc(-c2nnc(SCC(=O)NC)n2CCc2ccccc2)c1,-27.3
7,CC(C)CN1CCC(C(=O)N2CCN(c3ccccc3F)CC2)CC1,-32
8,Cc1cc(C(=O)O)cc(S(=O)(=O)Nc2ccccc2C(=O)NC(C)c2ccccc2)c1C (stereo not drawn),18.8
9,O=C(c1ccc(Br)cc1)N1CCCC(c2nc(-c3cccs3)no2)C1 (stereo not drawn),-16.1
10,NC(=O)COC(=O)CC12CC3CC(CC(Br)(C3)C1)C2,24.6
11,CC(C)(Oc1ccc(Br)cc1Cl)C(=O)Nc1ccon1,-1.6
12,C=CCOc1ccc(/C=N/Nc2ccccn2)cc1OC,17.2
13,Cc1cc(-c2nn(-c3ccccc3F)cc2CN2CCCC(C(N)=O)C2)c(C)s1 (stereo not drawn),-20.5
14,CC/C(Cc1ccccc1)=N\NC(=O)c1cc([N+](=O)[O-])cc([N+](=O)[O-])c1,-42.8
15,COc1cccc2cc(CC(=O)c3cc(C)ccc3C)c(=O)oc12,-7
16,CC(C)N(C(=O)COC(=O)[C@H](C)NC(=O)c1ccco1)c1ccccc1,19.6
17,CCCCNS(=O)(=O)c1ccc2c(c1)oc(=O)n2CC(=O)OCC,5.06
18,Cc1cccc(Nc2nc(NCc3ccco3)nc(N)c2[N+](=O)[O-])c1,10.6
19,CCCN(CCC)CC(=O)NCC1(c2ccccc2)CCOCC1.Cl,-7.83
20,CCC(c1nnnn1Cc1ccc2c(c1)OCO2)N1CCN(c2ccc(OC)cc2)CC1 (stereo not drawn),-44.6
21,O=C(Oc1ccc(C(=S)N2CCOCC2)cc1Br)c1ccccc1F,17.8
